B1: CPEB3 Ribozyme (parent)
chain: UAACAGGGGGCCACAGCAGAAGCGUUCACGUCGCAGCCCCUGUCAGAUUCUGGUGAAUCUGCGAAUUCUGCUGUAUAUCUC

Read counts are not given, so values of variants with three or more changes are uncertain.

The data set covers variants of B1. Briefly: self-cleavage, relative activity (ratio to wild type); higher = more cleavage; in vitro, sequencing. The gist of the method:
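After error-prone PCR and barcoding, CPEB3 ribozyme mutant libraries were transcribed with T7 RNA polymerase at 37°C for 5 hours, then given 15 min with DNase I before an EDTA stop, and they cleaved during both steps. Reverse transcription with template switching preceded Illumina sequencing. Relative activity divides a variant's cleaved/total read fraction by the unmutated ribozyme's. At least 5 reads were required per variant, and three batches were averaged.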
G19A C32U U51A U60C U67C: the self-cleavage worked out at 0.05. The value for G19U A35U U60A was 0.09; that for A20C U41A A47G U51A was 0.18; that for A20G A56G A77U U78C was 0.68.

Consider G19A U26C U60A, for which the self-cleavage was 0.35. Consider A20G A28U C39U U60C, for which the self-cleavage worked out at 0.15. In the case of A20C A28G U41C it was 0.07; in that of A20G A21U C29U U48C, 0.18; in that of G19U A28G U60C, 0.06. In the case of A20G A28U A57G U66A, the self-cleavage amounted to 0.19.

With G19U U25C A65U C68A, the self-cleavage was 0.15. In the case of A20G A21U A77G it was 0.07; in that of A20C A21G A35U U54C, 0.06; in that of G19U U25G U54C U58C U69A, 0.13.

Regarding A20G A21G U25C A57U U67C, the self-cleavage amounted to 0.07. Consider A20C A21U A35U G42U U69C U80C, for which the self-cleavage is 0.11.

A20C A21U U25C U60C: the self-cleavage is 0.05. As to G19C U26A A28U C34U U43C U49C, the self-cleavage turned out to be 0.04. The value for A20G C29U G46C U58A A77G was 0.12. In the case of G19C G24A C32U U49C A56U U76C it was 0.03. For the variant A20G A45G C50A A57C A64G, the self-cleavage came to 0.07.

As for A20G A28C U43A G63A U67C, the self-cleavage was determined as 0.39.

In the case of A20C U49C U54A U74C, the self-cleavage amounted to 0.17.

As for A20G A28U A35G A47C, the self-cleavage turned out to be 0.64. In the case of G19C U26C G30C U31G U66C it was 0.15; in that of G19C G33U G61A A65G, 0.05; in that of A20G C29U U54C A57G, 0.26.

For A20G A28G G52U C79G, the self-cleavage amounted to 0.78.

As for G19A C29U U66C, the self-cleavage is 0.1. Take G19C A28C C39A: the self-cleavage came out at 0.09. In the case of G19A A28U A35G, the self-cleavage is 0.54.

Turning to A20G A75G U80G, the self-cleavage was 0.74. In the case of A20G A28U C29U U31C A65G it was 0.06. As for G19C A20U U43A, the self-cleavage is 0.23.

On to A20G C23U U49G U54C C62U, for which the self-cleavage stood at 0.11.

Turning to A20G A21G U69A U78C, the self-cleavage came to 0.54. The value for A20G A28G U66C was 0.35; that for G19A A21U A28U U31G was 0.08; that for A20G C29G A47G U54C was 0.2. The value for A20C A28G U78C was 0.17; that for A20G A21G U41A U51C A65C was 0.14; that for G19C A28U U48C G52A was 0.23. G19C G52U U67A U69C U72C: the self-cleavage was found to be 0.16. On to G19U A21G C59A, for which the self-cleavage turned out to be 0.24. The value for A20G A64U U66A U69C U72C U76C U78C was 0.22; that for G19A U49C A56G U80C was 0.43. The value for A20G A35G U67A U72C was 1.22; that for A20G A45C G46U U48A U60C U78C was 0.05. Regarding A20G A35G A45U U67C, the self-cleavage came out at 0.68. The value for A20G C23A U41C G42A U43C was 0.13. In the case of A20G A21U C62U it was 0.04; in that of G19U U26C A64U U69C U72A, 0.09.

On to A20G A21G G30U U41C U72C U78A, for which the self-cleavage amounted to 0.27. In the case of G19U A21U C32A G46A U66C it was 0.06; in that of A20C A47G U54G A56U A57G, 0.2; in that of A20G C23U A47G, 0.3.

Regarding A20G A64G U72A U76C, the self-cleavage was found to be 0.21. In the case of G19U A28G G36C it was 0.14. A20G A28U U49C U66C A77G: the self-cleavage stood at 0.1. As for G19U A35G U49C U60C U76C, the self-cleavage turned out to be 0.13. Consider A20C U31C U54C A64G, for which the self-cleavage is 0.08. In the case of G19A A28G U54C U76A it was 0.05; in that of A20C U25C A45C, 0.08. For the variant A20G A28C A65G, the self-cleavage worked out at 0.14. In the case of G19U A47G G63C it was 0.16. Turning to A20C G33A U66C U67C U69A U74C U80C, the self-cleavage is 0.04. Turning to A20C U25A U69C, the self-cleavage came to 0.36.

In the case of G19A A21G U26A A28U, the self-cleavage was found to be 0.33. In the case of G19U A21U U25C U54G it was 0.16; in that of A20G A28G U60C, 0.31; in that of A20C U41C U48C A56G U72G, 0.11.

With G19C A21G C38A, the self-cleavage worked out at 0.26. The value for G19U A20G U26A A28U U41C U54C C68G was 0.08; that for A20G A21U U26C G33A G42A U80C was 0.08; that for A18U U66C U74G was 0.23. Take A20G C23U G24A U26C U49C: the self-cleavage was 0.24. In the case of A20G A21U U31C A57G U67A it was 0.17; in that of A20G A47U U54C, 0.11. With A20G A21G A57C U74C, the self-cleavage was 0.47. In the case of G19A A45G U51A U72A A77U U78C it was 0.08; in that of G19U C29U U43C U74C U80A, 0.04; in that of G19A U31A C39A G46U U80A, 0.06.

As to A20G A35G A64G, the self-cleavage came out at 1.23.

On to A20G A28U U43A U72C, for which the self-cleavage stood at 0.64.

Source of the values: the RNAGym collection of RNA variant scans (doi:10.1093/nar/gkz1192).
